# Results from PubChem BioAssay AID504832 (National Center for Advancing Translational Sciences (NCATS), 2011).
# The whole screen tested about 310,000 compounds, of which about 18,000 (5.8%) were called active. The inconclusive results got no clear call from the source; some entries with a clear call stand among them for comparison. The call rests on the fitted dose curve; in most records, active means well fitted inhibition curve with a large enough effect; inconclusive means small, poorly fitted or top-dose-only effect, or another doubt; inactive means no such curve, though single readings can be large or run the other way. Potencies of inconclusive entries are left out as doubtful fits.
# Assay: Primary qHTS for delayed death inhibitors of the malarial parasite plastid, 48 hour incubation
# Settings: P. falciparum luciferase growth in erythrocytes; series mostly up to 28.7 µM
# Outline: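 Compounds are pin-transferred into medium, infected erythrocytes (2% hematocrit, 0.1% parasitemia final) are added, and plates sit one parasite generation at 37 C in 5% CO2. Detection reagent is then added and luminescence measured.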
# On the % scale 0 is the no-effect control and ±100 the full control effect; potency means the concentration at half of the fitted maximal effect; tags describe the fitted curve by direction and shape.
SMILES,Potency,"activity change, negative = inhibition"
Cc1cc(NC(=O)C2C3C(=O)N(Cc4ccc(Cl)cc4)C(C(=O)NCc4ccccc4)C34C=CC2(C)O4)no1 (stereo not drawn),"inconclusive [inhibitor, partial curve, poor fit]",–
CCN(CC)C(=O)c1sc2nc(-c3cccs3)cc(-c3cccs3)c2c1N,active: 4.15 µM,–
CN(C)/N=C/C=C1\CCC/C(=C\c2ccc(F)c(F)c2)C1=O,"inconclusive [inhibitor, single point]",–
CN1C/C(=C/c2ccsc2)C(=O)/C(=C/c2ccsc2)C1,inactive,–
CCn1cc(CN2CCCC(CNS(=O)(=O)c3cccc4cccnc34)C2)cn1 (stereo not drawn),inactive,–
COc1cc2c(c(OC)c1OC)-c1ccc(OC)c(=O)cc1[C@@H](N(C)CC#CCO)CC2,"inconclusive [inhibitor, partial curve, poor fit]",–
CCOc1ccc(OCCC(=O)OCC(=O)N2CCN(S(=O)(=O)c3ccc(C)cc3)CC2)cc1,"inconclusive [inhibitor, single point]",–
CCc1ccc(C(=O)N/N=C(\C)c2ccncc2)s1,inactive,–
COc1cc2c(cc1OC)CN(C(=O)c1ccc([N+](=O)[O-])o1)CC2,"inconclusive [inhibitor, partial curve, poor fit]",–
COc1cccc(S(=O)(=O)Nc2ccc(C(=O)N3CCN(C(=O)c4ccco4)CC3)cc2)c1,"inconclusive [inhibitor, partial curve]",–
COc1ccc(C(C)(C)C)cc1NC(=O)c1cc(S(=O)(=O)N(C)C)ccc1N1CCCC1,active: 13.1 µM,–
COc1ccc(C(CNC(=O)c2cccc(S(=O)(=O)N3CCCC(C)C3)c2)N(C)C)cc1 (stereo not drawn),"inconclusive [inhibitor, single point]",–
COc1cc(/C=N/NC(=O)c2ccncc2)ccc1OCC(=O)Nc1ccc(C)c(C)c1,inactive,–
COc1ccc(NS(=O)(=O)c2cccs2)cc1S(=O)(=O)N1CCCCC1,"inconclusive [inhibitor, single point]",–
CCOC(=O)[C@H]1[C@H]2COc3ccc(C)cc3[C@@H]2N2C(=O)CN(Cc3ccc(F)cc3)C(=O)[C@@]12C,"inconclusive [inhibitor, single point]",–
CCCNC(=O)CCn1nc(-c2ccc(Cl)cc2)c2ccccc2c1=O,"inconclusive [inhibitor, single point]",–
C=Cn1cc[n+](CC(=O)c2ccc(Cl)cc2)c1,"inconclusive [inhibitor, full curve]",–
Cc1noc(C)c1C(=O)Nc1nc(-c2cccs2)cs1,inactive,–
O=C(NCC1CCCO1)C(c1ccc(F)cc1)N(C(=O)Cn1nnc(-c2ccc(F)cc2)n1)c1cccc(O)c1 (stereo not drawn),"inconclusive [inhibitor, partial curve]",–
Cc1ccc(N2NC(=O)/C(=C\c3cc4c(cc3[N+](=O)[O-])OCO4)C2=O)cc1C,active: 10.4 µM,–
COc1ccc(C(CNC(=O)COc2ccccc2C)N2CCCC2)cc1 (stereo not drawn),inactive,–
CC(C)c1ccc(NC(=O)N2CCN(S(=O)(=O)c3ccccc3)CC2)cc1,"inconclusive [inhibitor, single point]",–

SMILES,Potency,"activity change, negative = inhibition"
CC(=O)Nc1nonc1NC(=O)CSc1nc2ccccc2o1,"inconclusive [inhibitor, partial curve]",–
O=c1cc(-c2ccccc2)nc(SCc2ccc(Cl)cc2)[nH]1,inactive,–
Cc1ccc(Nc2c([N+](=O)[O-])c(=O)oc3ccccc23)cc1,"inconclusive [inhibitor, single point]",–
C#CCn1cc(/C=N/Nc2nc3ccccc3[nH]2)c2ccccc21,"inconclusive [inhibitor, partial curve, poor fit]",–
CN1/C(=C\C=C2/SC(=S)NC2=O)C(C)(C)c2ccccc21,"inconclusive [inhibitor, partial curve]",–
CCCC(=O)N(CCN1CCOCC1)c1nc2c(OC)ccc(C)c2s1,inactive,–
C=C(C)CN(CC)C(=O)CSc1ccc(S(=O)(=O)N2CCN(C)CC2)cn1,active: 10.4 µM,–
O=C(COc1ccccc1Cl)NCC(c1cccs1)N1CCOCC1 (stereo not drawn),"inconclusive [inhibitor, single point]",–
c1ccc(OCCSc2nc3ccccc3o2)cc1,inactive,–
COc1ccc(C(=O)NNC(=O)Nc2ccc(Cl)cc2)cc1,–,inactive: 15.5% [at 5.75 µM]
COC(=O)c1ccc(Cl)c(NC(=O)CN(c2ccccc2)S(=O)(=O)c2ccc(OC)cc2)c1,"inconclusive [inhibitor, single point]",–
Cc1ccc(C(=O)Nc2scc(-c3ccccc3)c2C(=O)O)o1,inactive,–
O=C1c2ccccc2NC(c2cccs2)N1NS(=O)(=O)c1ccccc1 (stereo not drawn),"inconclusive [inhibitor, single point]",–
COc1ccc(CCN(C)CC(O)COC(c2ccc(F)cc2)c2ccc(F)cc2)cc1OC (stereo not drawn),active: 13.1 µM,–
Cn1cccc1Cc1nnc(SCC(=O)Nc2ccc3c(c2)OCO3)n1-c1ccc(F)cc1,"inconclusive [inhibitor, full curve]",–
CNC(=S)NNC(=O)Cc1ccc(OC)cc1,"inconclusive [inhibitor, single point]",–
COc1ccccc1C(=O)NCCC(=O)NCC(c1ccco1)N1CCCCC1 (stereo not drawn),"inconclusive [inhibitor, single point]",–
CC1=CC(C)(C)Nc2ccc(OC(=O)CCN3C(=O)c4ccccc4C3=O)cc21,active: 13.1 µM,–
CCC1=Nc2cc(C(=O)NCC3CCCO3)ccc2Sc2ccc(Br)cc21 (stereo not drawn),active: 2.94 µM,–
Cc1ccc2c(c1)C1CN(C)CCC1N2C(=S)NC(=O)c1ccc(Br)cc1 (stereo not drawn),"inconclusive [inhibitor, partial curve, poor fit]",–
COc1ccc(Cc2nc3ccc(C(=O)N4C[C@@H](C)O[C@@H](C)C4)cc3o2)cc1OC,"inconclusive [inhibitor, partial curve]",–
